Test results reported in PubChem BioAssay AID1159614 (National Center for Advancing Translational Sciences (NCATS), 2016).
About 65 (0.1%) of roughly 45,000 compounds were called active. Calls come from the whole dose curve; as a rule, active = well fitted activation curve with a large enough effect; inconclusive = small, poorly fitted or top-dose-only effect; inactive = no such curve, though single readings can be large or run the other way. The list shows a part of the results.

Target: Galactocerebrosidase (Homo sapiens) (UniProt P54803)
Sequence of UniProt P54803 (P54803 whole entry, looked up): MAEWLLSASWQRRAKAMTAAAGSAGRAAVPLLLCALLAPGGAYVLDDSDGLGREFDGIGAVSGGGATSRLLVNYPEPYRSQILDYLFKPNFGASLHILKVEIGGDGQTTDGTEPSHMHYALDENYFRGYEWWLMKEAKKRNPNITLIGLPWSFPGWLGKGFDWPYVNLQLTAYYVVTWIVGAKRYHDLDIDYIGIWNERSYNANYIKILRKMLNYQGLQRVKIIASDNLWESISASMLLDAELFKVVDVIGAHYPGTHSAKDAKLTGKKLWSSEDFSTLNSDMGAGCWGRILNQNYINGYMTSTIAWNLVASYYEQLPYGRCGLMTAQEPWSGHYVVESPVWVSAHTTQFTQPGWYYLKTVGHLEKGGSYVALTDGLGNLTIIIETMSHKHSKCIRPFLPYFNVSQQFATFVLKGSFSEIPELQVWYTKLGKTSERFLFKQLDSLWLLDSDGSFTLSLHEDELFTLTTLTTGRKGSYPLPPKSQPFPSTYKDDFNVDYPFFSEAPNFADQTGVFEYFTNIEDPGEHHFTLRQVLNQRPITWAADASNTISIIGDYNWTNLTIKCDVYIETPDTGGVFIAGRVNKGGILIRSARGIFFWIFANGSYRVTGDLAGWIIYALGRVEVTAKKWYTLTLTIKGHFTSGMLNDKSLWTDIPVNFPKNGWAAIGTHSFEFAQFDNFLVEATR
Experiment: A Novel Cell-Based Assay to Identify Small Molecules for B -Galactocerebrosidase; note: nearly all actives have a fitted effect of over 65% in size; for activation: 0% is about no effect
Conditions: 145M-Twi-hGALC-G270D cells (Twitcher mouse brain line with human GALC G270D), HMU-beta-Gal fluorescence, 48 h; series mostly up to 57.5 µM; activation: at the top concentration
Summary of the method: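 Brain-derived Twitcher mouse 145M-Twi cells stably expressing human GALC-G270D or wild-type GALC, treated live, then residual GALC activity read by fluorescence of HMU-b-Gal substrate (0.1 mM final) in citrate-phosphate buffer pH 5.2 with sodium taurocholate. Signal increase indicates enhancement.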
Potency is the fitted concentration of half-maximal effect.

Row | Structure (SMILES) | activation | Potency
1 | COc1ccc2c(c1)c1c(c(=O)n(Cc3ccccc3)c(=O)n1CC(=O)NCc1ccccc1)n2C | inactive: 0.5% | –
2 | Cc1cc(C)cc(NC(=O)N2CCN(c3cc(-c4noc(C)n4)ccc3C)CC2)c1 | inactive: -14.5% | –
3 | CCc1nc(C)cn1S(=O)(=O)c1ccc(Cl)c(Cl)c1OC | inactive: -26.6% | –
4 | N#Cc1ccccc1Cn1cnc2nc3c(cc2c1=O)CCCC3 | inactive: -23.5% | –
5 | CCNC(=O)c1c(NC(=O)c2nc(S(=O)(=O)CC)ncc2Cl)sc2c1CCCC2 | inactive: -14.2% | –
6 | COc1ccccc1NC(=O)c1sc2nc3c(cc2c1N)CN(Cc1ccccc1)CC3 | inactive: -14.8% | –
7 | O=C(CSc1nc(=O)[nH]c2c1CCCC2)NCc1ccc(F)cc1 | inactive: -17.2% | –
8 | COc1ccc(CC(=O)NCCS(=O)(=O)N2CCN(c3ccc(F)cc3)CC2)cc1OC | inactive: -11.2% | –
9 | COCCn1c(C)cc(O)c(C(c2ccc(F)cc2)N2CCN(c3ccccc3)CC2)c1=O (stereo unspecified) | inactive: -8.32% | –
10 | CCOC(=O)c1c(C)c(-c2ccccc2)n(CC(=O)NCCc2cccc(C)c2)c1C | inactive: -9.2% | –
11 | Cc1nnc2c(N3CCN(c4ccccc4F)CC3)nc3ccc(C(=O)c4ccccc4)cc3n12 | inactive: -6.49% | –
12 | CCCOc1ccc(C(=O)Nc2ccc(NC(=O)c3ccccc3)c(C)c2)cc1 | inactive: -14.4% | –
13 | Cc1cccc(CC(=O)NCc2nc3cccnc3n2Cc2ccc(F)cc2)c1 | inactive: -19.3% | –
14 | CCc1cc(=O)[nH]c(SCc2nc(-c3ccccc3)no2)n1 | inactive: -25.1% | –
15 | Cc1cccc(C(=O)NC2=NC(c3ccc(Cl)cc3)CC(=O)N2)c1 (stereo unspecified) | inactive: -17.4% | –
16 | CCOC(=O)C(C#N)=C(c1ccccc1)c1ccccc1 | inactive: -4.32% | –
17 | COc1ccc(CNc2nc(SCc3ccccc3Cl)nc3ccccc23)cc1 | inactive: 17.5% | –
18 | CSc1ccc(CCNC(=O)c2cc3cc(S(=O)(=O)N4CCCCC4)ccc3n2C)cc1 | inactive: 3.4% | –
19 | COc1ccc(N2CC(NC(=O)C3CCCC3)CC2=O)cc1OC (stereo unspecified) | inactive: 28.8% | –
20 | CCOC(=O)C1CCC(CN(Cc2ccc(OC)cc2)S(=O)(=O)c2ccc(F)c(C(=O)Nc3c(C)cccc3C)c2)CC1 (stereo unspecified) | inactive: -12.8% | –
21 | O=C(Nc1cccc(Cl)c1)C1CCCN(c2ncnc3c2nc2n3CCCCC2)C1 (stereo unspecified) | inactive: 5.05% | –

Row | Structure (SMILES) | activation | Potency
22 | O=C(Cn1cnc2c(nc3n2CCCCC3)c1=O)Nc1ccc(F)c(Cl)c1 | inactive: -9.8% | –
23 | Cc1cc(F)ccc1NC(=O)CS(=O)(=O)c1cccc2nsnc12 | inactive: -20.6% | –
24 | Cc1ccccc1Nc1c(-c2ccccc2)nc2cccc(C)n12 | inactive: -11.2% | –
25 | CS(=O)(=O)Nc1ccccc1C(=O)OCc1cc(=O)n2nc(C3CCCCC3)sc2n1 | inactive: -13.4% | –
26 | CCc1ccc(C(=O)c2cn(CC(=O)Nc3cc(F)ccc3F)c3nc(C)ccc3c2=O)cc1 | – | active: 3.98 µM
27 | COc1ccc(CCNC(=O)c2cn(C)c3ccc(S(=O)(=O)N(C)C)cc3c2=O)cc1OC | inactive: -9.96% | –
28 | Cn1nc(C(=O)N2CCN(c3ccc(F)cc3)CC2)c2c1-c1ccccc1SC2 | inactive: -13.3% | –
29 | CC1CCCN(S(=O)(=O)c2cc3c4c(c2)CC(=O)N4CCC3)C1 (stereo unspecified) | inactive: -20.9% | –
30 | COc1ccc2c(c1)sc1ncc(C(=O)NCc3cccc(C)c3)c(=O)n12 | inactive: -7.43% | –
31 | CCN(C(=O)c1cn(CC(C)C)c(=O)c2cc(OC)c(OC)cc12)c1cc(OC)ccc1OC | inactive: 14.3% | –
32 | CC(C)c1ccc(NC(=O)Cn2nnc(C(=O)NCc3ccc(Cl)cc3)c2N)cc1 | inactive: -5.23% | –
33 | CN1c2cc(Cl)ccc2-c2nc(SCC(=O)Nc3ccc(F)cc3F)ncc2S1(=O)=O | inactive: -7.64% | –
34 | CC1=C(C(=O)Nc2cccnc2)C(c2ccc(F)cc2)n2nc(SCc3ccccc3F)nc2N1 (stereo unspecified) | inactive: -17.2% | –
35 | CCN(C(=O)c1cc2c(Cl)nc3ccccc3c2s1)c1cccc(Cl)c1 | inactive: -23.5% | –
36 | CCOC(=O)c1cnc2c(C)c(Cl)ccc2c1Nc1ccc(C)cc1C | inactive: 17.1% | –
37 | CCOC(=O)N1CCc2c(sc(NCc3ccc(OCC)cc3)c2C(=O)Nc2ccc(OC)cc2OC)C1 | inactive: 0.0556% | –
38 | O=C(NC1CCCC1)c1ccc(CSc2nc3ccncc3n2Cc2ccccc2F)cc1 | inactive: -7.68% | –
39 | COc1ccc(OC2CCN(S(=O)(=O)c3ccc(OC)cc3)CC2)cc1 | inactive: -4.89% | –
40 | COc1cc(NC(=O)CN(C)S(=O)(=O)c2ccc3[nH]c4c(c3c2)CCCC4)cc(OC)c1OC | inactive: -1.3% | –
41 | CCOc1ccccc1NC(=O)C(Cc1ccccc1)NS(=O)(=O)c1ccc(Br)s1 (stereo unspecified) | inactive: -38.6% | –
42 | COc1ccccc1C(=O)NCc1ccc2c(c1)CCN2C(=O)c1ccncc1 | inactive: -18% | –

Row | Structure (SMILES) | activation | Potency
43 | CCOC(=O)C1CCCN(C(=O)C2CCN(c3nnc(C)c4c(C)n(-c5ccccc5)nc34)CC2)C1 (stereo unspecified) | inactive: -7.05% | –
44 | CCn1cc(C(=O)O)c(=O)c2cc(F)c(N3CCNCC3)nc21 | inactive: -7.44% | –
45 | Clc1ccc(-c2noc3ncnc(NCCCN4CCN(c5ccccc5)CC4)c23)cc1 | inactive: -11.2% | –
46 | Cc1cc(NC(=O)CSc2nc3c([nH]c4ccccc43)c(=O)n2-c2cccc(Cl)c2)no1 | inactive: -1.09% | –
47 | CC(=O)OCC(=O)NCCCOc1cccc(CN2CCCCC2)c1 | inactive: -14.2% | –
48 | CCc1ccc(CNC(=O)C(CC)n2ccc3cc(S(=O)(=O)N4CCCCC4)ccc32)cc1 (stereo unspecified) | inactive: 5.54% | –
49 | COc1ccc(CNS(=O)(=O)c2cc(C(=O)Nc3cc(Cl)cc(Cl)c3)ccc2F)cc1 | inactive: -13.3% | –
50 | Cc1ccc(C)c(N2CCN(C(=O)C3CCN(S(=O)(=O)c4cn(C)cn4)CC3)CC2)c1 | inactive: -10.8% | –
51 | COC(=O)C1=C(C)NC(COC(N)=O)=C(C(=O)OC(C)C)C1c1cccc(Cl)c1Cl (stereo unspecified) | inactive: -13.9% | –
52 | CCc1ccccc1Nc1nn2c(=O)c3ccc(C(=O)NCc4cccs4)cc3nc2s1 | inactive: -21.1% | –
53 | CCOC(=O)Cn1c(=O)oc2cc(S(=O)(=O)Nc3cc(OC)cc(OC)c3)ccc21 | inactive: -16.2% | –
54 | COc1ccc(N2CCN(C(=O)C3CCN(S(=O)(=O)c4cnc[nH]4)CC3)CC2)cc1 | inactive: -6.05% | –
55 | COc1ccccc1C(=O)NCc1ccc2c(c1)CCN2C(=O)c1cccc(C)c1 | inactive: -17.3% | –
56 | CCc1ccc(S(=O)(=O)c2nnn3c2nc(NCc2cccs2)c2sccc23)cc1 | inactive: -25.9% | –
57 | CCn1c(C)c(C)c2cc(C(=O)NCCc3cc(OC)c(OC)c(OC)c3)ccc21 | inactive: -2.34% | –
58 | CN1CCN(C(c2ccc(F)cc2)c2sc3nc(-c4ccco4)nn3c2O)CC1 (stereo unspecified) | inactive: -15.4% | –
59 | Cc1cccc(C(=O)Nc2cccc(C(=O)OCc3cc(=O)n4c5c(sc4n3)CCCC5)c2)c1 | inactive: -7.04% | –
60 | COc1ccc(Cn2c(C(=O)O)c(CNCc3cccs3)c3ccc(C)cc32)cc1 | inactive: 0.0713% | –
61 | COc1ccc(-c2c3c(=O)n(C)c(=O)n(C)c3c3c(-c4ccccc4)nc4ccccc4n23)cc1 | inactive: -14.9% | –
